{"source": "PubChem BioAssay AID1477", "about": "(National Center for Advancing Translational Sciences (NCATS), 2009)", "note": "“And” between values parts separate entries of the source, which are not always exact repeats. Equal entries are not always repeated. The campaign covered roughly 230,000 compounds. Fewer than 10 were called active. The inconclusive results got no clear call from the source; some entries with a clear call stand among them for comparison. The call rests on the fitted dose curve; in most records, active means well fitted curve in the direction sought with a large enough effect; inconclusive means small, poorly fitted or top-dose-only effect, or effect the other way, or another doubt; inactive means no such curve, though single readings can be large or run the other way. Potencies of inconclusive entries are left out as doubtful fits."}
{"molecular_target": "Runt-related transcription factor 1 (Homo sapiens) + Core-binding factor subunit beta (Homo sapiens) (UniProt Q01196+Q13951)", "sequence (Q01196 whole entry, looked up)": "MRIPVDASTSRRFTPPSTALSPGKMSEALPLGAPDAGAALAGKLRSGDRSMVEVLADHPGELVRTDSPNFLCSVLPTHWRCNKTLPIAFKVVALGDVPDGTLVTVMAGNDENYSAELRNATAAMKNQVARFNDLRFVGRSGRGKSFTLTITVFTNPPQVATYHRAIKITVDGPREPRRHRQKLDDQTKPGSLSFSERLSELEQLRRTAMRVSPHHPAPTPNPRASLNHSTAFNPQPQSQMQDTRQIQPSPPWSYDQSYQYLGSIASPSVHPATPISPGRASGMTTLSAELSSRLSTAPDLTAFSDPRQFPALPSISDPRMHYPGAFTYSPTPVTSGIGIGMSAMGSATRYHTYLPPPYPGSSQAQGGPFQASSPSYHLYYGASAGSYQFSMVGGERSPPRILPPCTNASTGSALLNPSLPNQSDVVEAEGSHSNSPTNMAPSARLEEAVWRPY", "sequence (Q13951 whole entry, looked up)": "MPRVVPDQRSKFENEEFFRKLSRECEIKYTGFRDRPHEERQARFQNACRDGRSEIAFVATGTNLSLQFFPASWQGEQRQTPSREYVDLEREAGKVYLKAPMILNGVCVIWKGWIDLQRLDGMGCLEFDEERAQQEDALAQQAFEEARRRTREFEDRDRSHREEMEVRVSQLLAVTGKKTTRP", "experiment": "qHTS Assay for Compounds Blocking the Interaction Between CBF-beta and RUNX1 for the Treatment of Acute Myeloid Leukemia; on activity, negative = inhibition: % of control where 0% means no effect", "conditions": "AlphaScreen CBFb-His/RUNX1-biotin binding, biochemical; activity, negative = inhibition: at 59.8 µM (top of the series) unless noted", "method_in_brief": "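His-tagged CBF-beta and biotinylated RUNX1 (30 nM each) were premixed 20 min at room temperature, exposed to compound for 15 min, then given nickel-chelate and streptavidin AlphaScreen beads (50 ng each). After 90 min, AlphaScreen signal was read.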"}
{"smiles": "CCN(CC)c1ccc(NC(=O)c2cc(Cl)ccc2OC)cc1", "Potency": "inconclusive [inhibitor, single point]"}
{"smiles": "Cc1nc(Nc2ccc(S(=O)(=O)N3CCCCC3C)cc2)c2nnn(Cc3ccccc3)c2n1", "note": "(stereo not drawn)", "activity, negative = inhibition": "inactive: 6.76%"}
{"smiles": "Cc1ccoc1C(=O)NCCNc1ccc(Cl)cc1[N+](=O)[O-]", "Potency": "inconclusive [inhibitor, partial curve]"}
{"smiles": "CC(C)c1cccc2nc3c(c(C(C)(C)C)c12)Cn1c-3cccc1=O", "Potency": "inconclusive [activator, partial curve]"}
{"smiles": "O=C(O)c1cc(-c2ccc(/C=C3/SC(=S)N(Cc4ccccc4)C3=O)o2)ccc1Cl", "Potency": "inconclusive [inhibitor, partial curve]"}
{"smiles": "CCN(CC)c1ccc2cc(-c3nc4ccccc4[nH]3)c(=O)oc2c1", "Potency": "inconclusive [activator, full curve]"}
{"smiles": "CCN(CC)C(=O)CC(c1ccc(N(C)C)cc1)c1c(O)cc(OC)cc1OC", "note": "(stereo not drawn)", "Potency": "inconclusive [inhibitor, single point]"}
{"smiles": "O=C(NCc1ccccc1)c1nc2ccccc2s1", "Potency": "inconclusive [inhibitor, single point]"}
{"smiles": "CCN1C(=O)/C(=C/c2ccc3c(c2)CCN3CCCCl)C(=O)NC1=S", "activity, negative = inhibition": "inactive: 16.9%"}
{"smiles": "C=CC1=C2C=C(C3CC3)N(CCCCO)C=C2C(=O)C(C)(OC(=O)c2ccco2)C1=O", "note": "(stereo not drawn)", "activity, negative = inhibition": "inactive: -2.14% [at 13.1 µM]"}
{"smiles": "O=C(N/N=C/c1sc2ccccc2c1O)c1cccc2ccccc12", "Potency": "inconclusive [inhibitor, partial curve]"}
{"smiles": "Cc1ccc2c(c1)-c1[nH]c(=S)ncc1CS2", "activity, negative = inhibition": "inactive: -21.1%"}
{"smiles": "O=C(N/N=C1/C[C@@H](O)[C@@H](O)[C@@H]2[C@H]3C(=O)N(c4ccc(F)cc4F)C(=O)[C@@H]3CC[C@@H]12)OCc1ccccc1", "activity, negative = inhibition": "inactive: -1.91% [at 13.1 µM]"}
{"smiles": "O=C1N(c2ccccc2)c2ccccc2C1(Cc1ccncc1)Cc1ccncc1", "Potency": "inconclusive [inhibitor, full curve, poor fit]"}
{"smiles": "CC(C)=NNc1cc([N+](=O)[O-])cc2c1C(=O)N(C)S2=O", "note": "(stereo not drawn)", "Potency": "inconclusive [activator, full curve, poor fit]"}
{"smiles": "COC(=O)c1ccc(Oc2nc(NC(C)C)nc(NC(C)C)n2)cc1", "activity, negative = inhibition": "inactive: -0.556%"}
{"smiles": "Cc1ccc(C)c(CSCC(=O)NCc2cccs2)c1", "activity, negative = inhibition": "inactive: -1.17%"}
{"smiles": "CCNc1ccc(Br)cc(C(=O)/C=C/c2ccc3c(c2)OCO3)c1=O", "Potency": "inconclusive [inhibitor, single point]"}
{"smiles": "COc1ccc(CC(=O)N2CCOCC2)cc1", "activity, negative = inhibition": "inactive: 10.4%"}
{"smiles": "COc1ccc(CNc2oc(Cc3cccc4ccccc34)nc2C#N)cc1", "Potency": "inconclusive [inhibitor, single point]"}
{"smiles": "COC(=O)CSc1[nH]c2cc(C)ccc2c1[N+](=O)[O-]", "activity, negative = inhibition": "inactive: 20.9%"}
{"smiles": "CCc1nnc(NC(=O)c2cc(-c3ccco3)nc3ccccc23)s1", "Potency": "inconclusive [inhibitor, single point]"}
{"smiles": "O=c1cc(-c2ccc(O)c(O)c2)oc2cc(O)c([C@@H]3O[C@H](CO)[C@@H](O)[C@H](O)[C@H]3O)c(O)c12", "Potency": "inconclusive [inhibitor, single point]"}
{"smiles": "COC1C=CO[C@@]2(C)Oc3c(C)c(O)c4c(O)c(c(C=NN5CCN(C)CC5)c(O)c4c3C2=O)NC(=O)/C(C)=C\\C=CC(C)C(O)[C@@H](C)C(O)C(C)[C@H](OC(C)=O)C1C", "note": "(stereo partly drawn)", "Potency": "inconclusive [inhibitor, single point]"}
{"smiles": "CCN1C(c2ccccc2)=C(c2ccccc2)S/C1=C/C=C1\\SC(=S)N(C)C1=O", "Potency": "inconclusive [inhibitor, single point]"}
{"smiles": "COc1ccc(NC(=S)N2CCNC(=O)C2CC(=O)Nc2cccc(Cl)c2C)cc1", "note": "(stereo not drawn)", "Potency": "inconclusive [inhibitor, full curve, poor fit]"}
{"smiles": "COc1ccc(/C=N/NC(=S)Nc2ccccc2)cc1COc1cccc(C)c1C", "activity, negative = inhibition": "inactive: 4.62%"}
{"smiles": "Fc1ccc(CSc2nsc(SCc3ccc(F)cc3)n2)cc1", "Potency": "inconclusive [activator, partial curve]"}
{"smiles": "CCOC(=O)c1cc2c(ccn2C)n1CC(=O)N1C(C)CCCC1C", "note": "(stereo not drawn)", "Potency": "inconclusive [inhibitor, single point]"}
{"smiles": "COc1ccc(CCNC(=O)c2cc(C(=O)c3cc(C)ccc3O)cn(CCc3ccc(OC)cc3)c2=O)cc1", "Potency": "inconclusive [inhibitor, single point]"}
{"smiles": "COC(=O)CCC(NC(=O)c1cc(-c2ccc3c(c2)OCCO3)oc1C)C(=O)OC", "note": "(stereo not drawn)", "activity, negative = inhibition": "inactive: 4.09%"}
{"smiles": "CCN1/C(=C/c2ccc3ccccc3[n+]2CC)C=Cc2ccccc21", "Potency": "inconclusive [inhibitor, single point]"}
{"smiles": "CCOP(=S)(OCC)Oc1ccc([N+](=O)[O-])cc1", "Potency": "inconclusive [activator, partial curve, poor fit]"}
{"smiles": "CC(N)C(O)c1ccc(O)c(O)c1", "note": "(stereo not drawn)", "activity, negative = inhibition": "inactive: 2.52%"}
{"smiles": "CCC(C)Oc1cc(-c2ccnc(Nc3cccc(Cl)c3)n2)ccn1", "note": "(stereo not drawn)", "Potency": "inconclusive [activator, partial curve]"}
{"smiles": "CC1=NN(Cc2ccccc2)C(=O)/C1=C\\c1ccc(N(C)C)cc1", "Potency": "inconclusive [inhibitor, single point]"}
{"smiles": "CC1(C)CC(=O)C(N=Nc2cc(S(=O)(=O)N3CCOCC3)ccc2Cl)=C(O)C1", "Potency": "inconclusive [inhibitor, single point]"}
{"smiles": "COc1ccc(-c2c3c(=O)n(C)c(=O)n(C)c3cn2-c2ccc(O)cc2)cc1", "Potency": "inconclusive [inhibitor, partial curve]"}
{"smiles": "CC(=O)O[C@H]1C2[C@@H](OC(=O)Cc3ccccc3)[C@@H](C)C[C@]2(OC(C)=O)C(=O)/C(C)=C/[C@@H]2[C@H](CC[C@@]13CO3)C2(C)C", "note": "(stereo partly drawn)", "Potency": "inconclusive [activator, partial curve]"}
{"smiles": "CCCc1cc(=O)oc2cc(C)cc(O)c12", "activity, negative = inhibition": "inactive: 5.31%"}
{"smiles": "COc1cccc(C(=O)Nc2nc(-c3ccncc3)cs2)c1", "Potency": "inconclusive [activator, single point]"}
{"smiles": "O=c1[nH]c(=S)[nH]c(O)c1N=Nc1ccc(-c2ccccc2)cc1[N+](=O)[O-]", "Potency": "inconclusive [inhibitor, single point]"}
{"smiles": "CCC(C)NC(=O)c1ccccc1NC(=O)CN1C(=O)c2ccccc2S1(=O)=O", "note": "(stereo not drawn)", "activity, negative = inhibition": "inactive: 13.3%"}
{"smiles": "COc1ccc(NC(=O)CSC2CCCCC2)cc1", "activity, negative = inhibition": "inactive: 12.6%"}
{"smiles": "C=CC(COCc1ccccc1)N(Cc1ccc(OC)cc1)S(=O)(=O)c1ccccc1Br", "note": "(stereo not drawn)", "Potency": "inconclusive [activator, partial curve]"}
{"smiles": "Cn1cnnc1Sc1cc(N2CCN(S(=O)(=O)c3ccccc3)CC2)ccc1[N+](=O)[O-]", "activity, negative = inhibition": "inactive: -11.9%"}
{"smiles": "CC(=O)OCC1OC(C#Cc2ccccc2)C=CC1OC(C)=O", "note": "(stereo not drawn)", "activity, negative = inhibition": "inactive: 6.11% [at 13.1 µM] and inactive: 10.1% [at 13.1 µM]"}
{"smiles": "C(=C\\c1ccco1)/c1ccc2ccccc2n1", "Potency": "inconclusive [inhibitor, partial curve]"}
{"smiles": "O=C(NC(=S)Nc1ccc2c(c1)OCCO2)c1cccc(Br)c1", "Potency": "inconclusive [inhibitor, single point]"}
{"smiles": "CCCC(=O)Oc1ccc(-c2nccc(C(OC)OC)n2)cc1", "Potency": "inconclusive [activator, single point]"}
{"smiles": "O=C(NCc1ccccc1F)c1ccc(S(=O)(=O)Nc2cccc(C(F)(F)F)c2)cc1", "Potency": "inconclusive [activator, single point]"}
{"smiles": "CCOC(=O)c1cc(-c2ccccc2)nc2nc(N3CCCCC3)sc12", "Potency": "inconclusive [activator, partial curve]"}
{"smiles": "C=CCSc1cc(C)nc2c(-c3ccccc3)c(C)nn12", "Potency": "inconclusive [activator, partial curve]"}
{"smiles": "CN(C)/C=C/C(=O)C(Cl)(Cl)Cl", "Potency": "inconclusive [inhibitor, single point]"}
{"smiles": "c1ccc(-c2cccs2)nc1", "activity, negative = inhibition": "inactive: 3.41%"}
{"smiles": "COc1ccc(NC(=O)C/C(C)=N/NC(=O)c2ccncc2)c([N+](=O)[O-])c1", "activity, negative = inhibition": "inactive: -3.12%"}
{"smiles": "Cn1c(-c2ccc(N)cc2)nc2ccccc21", "activity, negative = inhibition": "inactive: 6.28%"}
{"smiles": "O=C(CCc1n[nH]c(=O)[nH]c1=O)N/N=C/c1ccco1", "Potency": "inconclusive [inhibitor, single point]"}
{"smiles": "O=[N+]([O-])c1nn(-c2ccc3c(c2)OCCO3)n(O)c1=NC1CCCCC1", "Potency": "inconclusive [inhibitor, single point]"}
{"smiles": "CNc1nc(-c2ccccc2)cc(C)c1S(C)(=O)=O", "Potency": "inconclusive [activator, partial curve]"}
{"smiles": "COc1ccccc1-c1nc(C#N)c(N2CCN(c3ccccc3)CC2)o1", "Potency": "inconclusive [inhibitor, single point]"}
{"smiles": "Cc1ccc(C(=O)Nc2ccc(SC(F)F)cc2)s1", "Potency": "inconclusive [activator, partial curve]"}
{"smiles": "O=C(CCS(=O)(=O)c1cccc2nonc12)NCc1ccc(Cl)cc1", "activity, negative = inhibition": "inactive: 5.34%"}
{"smiles": "Cc1cccc(-c2csc(NC(=O)c3cnccn3)c2C(=O)OC(C)C)c1", "activity, negative = inhibition": "inactive: 1.33%"}
{"smiles": "CC/C=C/[C@@H](c1ccccc1)[C@H](C)C(O)CC(=O)SC(C)(C)C", "note": "(stereo partly drawn)", "Potency": "inconclusive [activator, single point]"}
{"smiles": "c1ccc(CNCC2COc3ccccc3O2)cc1", "note": "(stereo not drawn)", "activity, negative = inhibition": "inactive: 3.63%"}
{"smiles": "CC(NC(=O)c1ccc(F)cc1)C(c1cccs1)N1CCN(C)CC1", "note": "(stereo not drawn)", "activity, negative = inhibition": "inactive: -12.4%"}
{"smiles": "Cc1ccc(CNC(=O)[C@]2(C(F)(F)F)C[C@H](CCc3ccccc3)CCCO2)o1", "Potency": "inconclusive [inhibitor, single point]"}
